Measurements reported in PubChem BioAssay AID1346428 (National Center for Advancing Translational Sciences (NCATS), 2018).
In all, about 48,000 compounds went through this assay and about 1,200 (2.5%) were called active. Inconclusive results (about 2%) are left out.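 The calls were made as follows: active = activation of at least 60% and not above a set upper limit (about 1 call in 100 departs from these limits); inconclusive = activation of 40% to 60%, or above that upper limit; inactive = activation under 40%.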 Some of the results follow.

molecular target: Probable G-protein coupled receptor 32 (Homo sapiens) (UniProt O75388); assay: qHTS for Agonists of Human Resolvin D1 Receptor DRV1; settings: CHO-K1 GPR32 beta-arrestin PathHunter luminescence, 90 min; at 76.9 µM; stronger effect = higher value; zero percent set by DMSO-only wells
Procedure, shortened: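 PathHunter enzyme-fragment complementation, CHO-K1 GPR32 stable line; 2,500 cells/well, overnight attach; cpd 90 min 37 °C 5% CO2; detection reagent 1 h RT; chemiluminescence. DMSO = EC0.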

Sequence of UniProt O75388 (O75388 whole entry, looked up, the tested form may be a part): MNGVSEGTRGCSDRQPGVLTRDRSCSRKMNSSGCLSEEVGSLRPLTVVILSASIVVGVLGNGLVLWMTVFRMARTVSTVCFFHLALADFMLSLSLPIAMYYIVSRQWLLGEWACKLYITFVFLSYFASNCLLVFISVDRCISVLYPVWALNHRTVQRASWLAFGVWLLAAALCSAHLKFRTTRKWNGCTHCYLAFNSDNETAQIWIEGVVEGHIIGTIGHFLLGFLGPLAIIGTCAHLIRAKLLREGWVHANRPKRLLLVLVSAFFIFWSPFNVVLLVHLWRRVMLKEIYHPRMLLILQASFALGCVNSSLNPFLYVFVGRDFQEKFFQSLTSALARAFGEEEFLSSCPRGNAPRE

activation, active:
CCCN1CCCc2cc(CN(CCCN3CCOCC3)C(=O)Nc3ccc(CC)cc3)ccc21 61.3%

activation, inactive:
COc1ccc(OC)c(-c2noc(CSc3nnc(Cc4ccccc4)n3-c3cccc(C)c3)n2)c1 -18.4%
Cc1noc2nc(C(=O)O)nc(N3CCCCC3)c12 3.91%
Cn1cc(S(=O)(=O)c2ccccc2)c(=O)c2cc(F)c(N3CCCCC3)cc21 -3.62%
CC(=O)c1ccc(NC(=O)CCn2nc(C)c(S(=O)(=O)N3CCC(C)CC3)c2C)cc1 -12.9%
CC1CCC(NC(=O)Cn2ncc3c4ccccc4n(Cc4ccc(Cl)cc4)c3c2=O)CC1 (stereo not drawn) -6.08%
Cc1ccc(S(=O)(=O)c2c(Nc3cccc(Cl)c3)sc(C(=O)c3ccc4c(c3)OCO4)c2N)cc1 -1.8%
CCOc1ccc(NC(=O)CSC2=Nc3ccccc3C3=NC(CC(=O)NCc4ccc5c(c4)OCO5)C(=O)N23)cc1 (stereo not drawn) 8.47%
O=C(NCc1ccccc1Cl)c1ccc(NC(=O)N2CCCCc3ccccc32)cc1 -5.23%
Cc1ccc(C(=O)c2oc3ccccc3c2NC(=O)Cc2coc3c(C)c(C)ccc23)cc1 -5.02%
COc1cc(C)ccc1OCCSc1nnc(-c2ccc(C)cc2)o1 3.21%
O=C(OCc1cc(=O)n2c3c(sc2n1)CCCC3)c1cccc(NC(=O)c2ccccc2F)c1 -28%
COc1ccc(-c2nc3ccccc3n2Cc2ccc(Cl)cc2)cc1 -0.196%
Cc1cccc(NC(=O)CN(C)S(=O)(=O)c2ccc3c(c2)c(=O)n(C)c(=O)n3C)c1 11.8%
COc1ccccc1C(=O)Nc1ccc(-c2nc3ccccc3s2)c(C)c1 -10%
Cc1cc(Br)ccc1NC(=O)C1(S(=O)(=O)c2ccc(Cl)cc2)CC1 -13.9%
O=C(NCCS(=O)(=O)N1CCN(c2ccccc2)CC1)C1CC(=O)N(c2ccccc2)C1 (stereo not drawn) -19.6%
CC1CCCCN1CC(=O)N1CCCc2c1c(=O)oc1ccc(OCc3ccccc3)cc21 (stereo not drawn) -1.28%
Cc1ccc(-c2cc(C(=O)N(Cc3ccccc3)Cc3ccco3)no2)cc1F -6.53%
CCOc1ccc(CCNc2nc3c(-c4ccc(C)cc4)nnn3c3ccccc23)cc1OCC 7.35%
Cc1ccc(-c2ccc(=O)n(CC(=O)Nc3ccc(F)c(Cl)c3)n2)cc1C 2.32%
COc1ccc(-c2nc(CNS(=O)(=O)c3ccc(C)cc3)cs2)cc1 -3.2%
COc1ccccc1C(=O)Nc1nnc(S(=O)(=O)N2CCCCCC2)s1 6.36%
CCOc1ccccc1C(=O)Nc1ccc(S(=O)(=O)N2CCCCC2c2cccnc2)cc1 (stereo not drawn) 24.6%
COc1cccc(NC(=O)CSC2=Nc3ccccc3C3=NC(CCC(=O)NCc4ccco4)C(=O)N23)c1 (stereo not drawn) -27.6%
COc1ccc(S(=O)(=O)c2c(SC)nn(Cc3ccccc3C)c2NC(C)=O)cc1 -1.11%
Cn1nc(C(=O)N2CCN(c3ccccc3)CC2)c2c1-c1ccccc1S(=O)(=O)C2 -7.79%
COc1ccc(C)cc1NC(=O)c1ccc2c(Cl)c3c(nc2c1)CCC3 13.8%
O=C(O)c1cn(C2CC2)c2cc(Cl)c(F)cc2c1=O -4.71%
O=C(CSc1nc2c([nH]c3ccccc32)c(=O)n1-c1ccccc1)N1CCCC1 -29%
CCOC(=O)C1CCCN(C(=O)c2ccc3c(c2)N(Cc2ccccc2)C(=O)c2ccccc2S3=O)C1 (stereo not drawn) -3.64%
Cc1ccc(C)c(NC(=O)Cn2c(=O)n(CCC(=O)NCc3ccc4c(c3)OCO4)c(=O)c3ccccc32)c1 -12.9%
COc1cc(C2CC(=O)Nc3c2c(=O)[nH]c2ncnn32)ccc1O (stereo not drawn) -0.932%
CCOC(=O)c1cccc(Nc2ccc3cc(S(=O)(=O)N4CCCCC4)ccc3n2)c1 -12.5%
O=c1c2oc3ccccc3c2n(Cc2ccccc2)c(=O)n1Cc1ccc2c(c1)OCO2 -19.1%
Cc1ccc(OCC(=O)Nc2ccc3nn(-c4ccc(Cl)cc4)nc3c2)cc1 -6.86%
COc1cccc(CNC(=O)c2ccc(NC(=O)N3CCCCc4ccccc43)cc2)c1 -2.27%
NOCC(=O)O -0.924%
COc1cc2c(cc1OC)n(CC(=O)c1ccc(F)cc1)c(=O)n1nc(CCn3nc(C)cc3C)nc21 -11.8%
CCCCc1nn2c(=O)cc(COC(=O)c3ccccc3NC(=O)c3ccccc3OC)nc2s1 -14.3%
CCCCn1c(=O)c2oc3ccccc3c2n(CC(=O)Nc2cccc(Cl)c2)c1=O -9.95%
COc1cccc(NS(=O)(=O)c2ccc3[nH]cc(C(=O)N(C)C4CCCCC4)c(=O)c3c2)c1 -1.74%
CCCC(=O)N1c2nc(C(C)C)nn2C2(CCCCC2)[C@@H]2CCCC[C@@H]21 -20.3%
COc1ccc2oc(=O)cc(CN3CCN(c4ccccc4F)CC3)c2c1 -9.58%
O=C(Nc1cccc(Cl)c1)c1csnn1 20.5%
Cc1ccc(-c2nc(SCC(=O)NCC3CCCO3)c(-c3ccc(C)cc3)[nH]2)cc1 (stereo not drawn) -22.7%
NC(=O)c1cc(S(=O)(=O)NCC2CCC(C(=O)Nc3ccc(Cl)cc3)CC2)cs1 (stereo not drawn) 0%
Cc1nnc(N2CCN(C(=O)Nc3cccc(C(F)(F)F)c3)CC2)c2nn(-c3ccccc3)c(C)c12 -4.8%
CC(C)c1cnc2c(c1SCc1cccc(C(F)(F)F)c1)c(=O)n(C)c(=O)n2C -8.66%
Cc1ccc(-n2c(=O)c3ccc(C(=O)NCc4ccco4)cc3n(Cc3cccc(Cl)c3)c2=O)cc1 -2.95%
CCc1nc(SCC(=O)Nc2ccc(NC(C)=O)cc2)n[nH]1 4.78%
CC(C)CCNC(=O)CSCc1cnn(-c2ccccc2)c1-n1cccc1 -10.1%
Cc1cccc(-n2c3nc(=O)n(C)c(=O)c-3cc3c(Cl)cccc32)c1C -3.92%
